From US20100260668A1 (published 2010) come the findings set out here.

Test [1] addresses T1, VEGF (UniProt P15692 27-191, limits assumed).
T1 construct: Bought antigen coated on the ELISA plate; also called vascular endothelial growth factor
T1 sequence (looked up): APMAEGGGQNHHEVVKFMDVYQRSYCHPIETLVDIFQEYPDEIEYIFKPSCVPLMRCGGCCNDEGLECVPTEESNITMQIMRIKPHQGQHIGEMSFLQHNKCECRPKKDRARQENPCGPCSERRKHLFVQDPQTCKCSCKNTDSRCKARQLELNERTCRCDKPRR
The experiment in a line: direct bind ELISA, antigen on plate; N-terminal VD. For orientation: An ELISA detects its analyte on a solid surface through an enzyme-linked reagent.

Test [2] has as its target T2, VEGF (UniProt P15692 27-191, limits assumed).
T2 construct: bought antigen coated on the ELISA plate
T2 sequence (looked up): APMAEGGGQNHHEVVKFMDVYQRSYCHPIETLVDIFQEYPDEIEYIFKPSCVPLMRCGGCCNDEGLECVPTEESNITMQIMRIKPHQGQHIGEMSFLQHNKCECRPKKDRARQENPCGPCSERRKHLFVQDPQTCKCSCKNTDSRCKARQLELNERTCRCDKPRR
As to the kind of experiment: direct bind ELISA, N-terminal VD.

In test [3] the target is T3, ErbB3 (ErbB3 ECD/FC Chimera-His tag, R&D 348-RB-050) (UniProt P21860 partial chain, limits assumed).
T3 construct: extracellular domain; Bought antigen coated on the ELISA plate
As to the kind of experiment: direct bind ELISA, coated antigen; C-terminal VD of DVD-Ig.

A further test deals with T4, IGF-2 (UniProt P01344 partial chain).
T4 construct: Bought reagent
The experiment in a line: Biacore SPR. Background: SPR reads the build-up and loss of mass on a sensor chip optically.

In test [4] the target is human DLL4 extracellular domain (human, UniProt Q9NR61 partial chain). The experiment in a line: cell-based or functional assay.
Test [5] concerns the target T5, recombinant human VEGF165 (human, UniProt P15692-4 27-191).
T5 sequence (looked up): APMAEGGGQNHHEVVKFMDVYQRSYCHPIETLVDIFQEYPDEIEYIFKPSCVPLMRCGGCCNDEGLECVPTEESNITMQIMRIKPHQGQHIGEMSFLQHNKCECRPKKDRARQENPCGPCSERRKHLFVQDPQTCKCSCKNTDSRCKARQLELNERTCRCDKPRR
The experiment in a line: cell-based or functional assay.

B1: DVD592 (bispecific antibody, human IgG1, kappa)
heavy: EVQLVESGGGLVQPGGSLRLSCAASGFTINASWIHWVRQAPGKGLEWVGAIYPYSGYTNYADSVKGRFTISADTSKNTAYLQMNSLRAEDTAVYYCARWGHSTSPWAMDYWGQGTLVTVSSASTKGPSVFPLAPQVQLQQSGAELVKPGASVKISCKASGYTFTDYYINWVKLAPGQGLEWIGWIYPGSGNTKYNEKFKGKATLTIDTSSSTAYMQLSSLTSEDTAVYFCVRDSPFFDYWGQGTLLTVSS[omitted - human IgG1 constant region]
light: DIQMTQSPSSLSASVGDRVTITCRASQVIRRSLAWYQQKPGKAPKLLIYAASNLASGVPSRFSGSGSGTDFTLTISSLQPEDFATYYCQQSNTSPLTFGQGTKVEIKRTVAAPDIVLTQSPDSLAVSLGERVTMNCKSSQSLLNSGMRKSFLAWYQQKPGQSPKLLIYWASTRESGVPDRFTGSGSGTDFTLTISSVQAEDVAVYYCKQSYHLFTFGSGTKLEIKRTVAAPSVFIFPPSDEQLKSGTASVVCLLNNFYPREAKVQWKVDNALQSGNSQESVTEQDSKDSTYSLSSTLTLSKADYEKHKVYACEVTHQGLSSPVTKSFNRGEC
notes: DVD-Ig, N-terminal VEGF (AB071), C-terminal PlGF (AB047); HC linker long, LC linker short; also called DVD592VH; DVD592VL
Consider B1, for which it took 19.2 nM to reach a half-maximal effect in the test with VEGF [1] (EC50).

B2: DVD576 (bispecific antibody, human IgG1, kappa)
heavy: EVQLVESGGGLVQPGGSLRLSCAASGFTINASWIHWVRQAPGKGLEWVGAIYPYSGYTNYADSVKGRFTISADTSKNTAYLQMNSLRAEDTAVYYCARWGHSTSPWAMDYWGQGTLVTVSSASTKGPQVQLQQSGAELVKPGASVKISCKASGYTFTDYYINWVKLAPGQGLEWIGWIYPGSGNTKYNEKFKGKATLTIDTSSSTAYMQLSSLTSEDTAVYFCVRDSPFFDYWGQGTLLTVSS[omitted - human IgG1 constant region]
light: DIQMTQSPSSLSASVGDRVTITCRASQVIRRSLAWYQQKPGKAPKLLIYAASNLASGVPSRFSGSGSGTDFTLTISSLQPEDFATYYCQQSNTSPLTFGQGTKVEIKRTVAAPDIVLTQSPDSLAVSLGERVTMNCKSSQSLLNSGMRKSFLAWYQQKPGQSPKLLIYWASTRESGVPDRFTGSGSGTDFTLTISSVQAEDVAVYYCKQSYHLFTFGSGTKLEIKRTVAAPSVFIFPPSDEQLKSGTASVVCLLNNFYPREAKVQWKVDNALQSGNSQESVTEQDSKDSTYSLSSTLTLSKADYEKHKVYACEVTHQGLSSPVTKSFNRGEC
notes: outer AB071 (VEGF), inner AB047 (PlGF); HC linker short, LC linker short; also called DVD-Ig DVD576
With B2, in the test with VEGF [2], the EC50 – broadly, the concentration at which the effect is half-maximal – was 16.2 nM.

B3: DVD584 (bispecific antibody, human IgG1, kappa)
heavy: EVQLVESGGGLVQPGGSLRLSCAASGFTINASWIHWVRQAPGKGLEWVGAIYPYSGYTNYADSVKGRFTISADTSKNTAYLQMNSLRAEDTAVYYCARWGHSTSPWAMDYWGQGTLVTVSSASTKGPSVFPLAPQVQLQQSGAELVKPGASVKISCKASGYTFTDYYINWVKLAPGQGLEWIGWIYPGSGNTKYNEKFKGKATLTIDTSSSTAYMQLSSLTSEDTAVYFCVRDSPFFDYWGQGTLLTVSS[omitted - human IgG1 constant region]
light: DIQMTQSPSSLSASVGDRVTITCRASQVIRRSLAWYQQKPGKAPKLLIYAASNLASGVPSRFSGSGSGTDFTLTISSLQPEDFATYYCQQSNTSPLTFGQGTKVEIKRTVAAPSVFIFPPDIVLTQSPDSLAVSLGERVTMNCKSSQSLLNSGMRKSFLAWYQQKPGQSPKLLIYWASTRESGVPDRFTGSGSGTDFTLTISSVQAEDVAVYYCKQSYHLFTFGSGTKLEIKRTVAAPSVFIFPPSDEQLKSGTASVVCLLNNFYPREAKVQWKVDNALQSGNSQESVTEQDSKDSTYSLSSTLTLSKADYEKHKVYACEVTHQGLSSPVTKSFNRGEC
notes: outer AB071 (VEGF), inner AB047 (PlGF); HC linker long, LC linker long; also called DVD-Ig DVD584
Consider B3, for which, in the test with VEGF [2], the EC50 is 18.4 nM.

B4: DVD686 (bispecific antibody, human IgG1, kappa)
heavy: [omitted - about 120 residues]ASTKGPEVQLVESGGGLVQPGGSLRLSCAASGFTFSIYSMNWVRQAPGKGLEWVSYISSSSSTIYYADSVKGRFTISRDNAKNSLYLQMNSLRDEDTAVYYCARDRGDFDAFDIWGQGTMVTVSS[omitted - human IgG1 constant region]
light: [omitted - about 100 residues]RTVAAPDIQMTQSPSSLSASVGDRVTITCQASQDITNYLNWYQQKPGKAPKLLIYDASNLETGVPSRFSGSGSGTDFTFTISSLQPEDIATYNCQQCENFPITFGQGTRLEIKRTVAAPSVFIFPPSDEQLKSGTASVVCLLNNFYPREAKVQWKVDNALQSGNSQESVTEQDSKDSTYSLSSTLTLSKADYEKHKVYACEVTHQGLSSPVTKSFNRGEC
notes: DVD-Ig; HC linker short, LC linker short; also called DVD686H; DVD686L
In test [3], B4 yielded an EC50 of 97.4 nM.

B5: DVD042 (bispecific antibody, human IgG1, kappa)
heavy: QVQLVQSGAEVKKPGASVKVSCKASGYTFTSYDINWVRQATGQGLEWMGWMNPNSGNTGYAQKFQGRVTMTRNTSISTAYMELSSLRSEDTAVYYCARDPYYYYYGMDVWGQGTTVTVSSASTKGPEVQLVESGGGLVQPGGSLRLSCAASGYTFTNYGMNWVRQAPGKGLEWVGWINTYTGEPTYAADFKRRFTFSLDTSKSTAYLQMNSLRAEDTAVYYCAKYPHYYGSSHWYFDVWGQGTLVTVSS[omitted - human IgG1 constant region]
light: QSVLTQPPSVSAAPGQKVTISCSGSSSNIENNHVSWYQQLPGTAPKLLIYDNNKRPSGIPDRFSGSKSGTSATLGITGLQTGDEADYYCETWDTSLSAGRVFGGGTKLTVLGQPKAAPDIQMTQSPSSLSASVGDRVTITCSASQDISNYLNWYQQKPGKAPKVLIYFTSSLHSGVPSRFSGSGSGTDFTLTISSLQPEDFATYYCQQYSTVPWTFGQGTKVEIKRTVAAPSVFIFPPSDEQLKSGTASVVCLLNNFYPREAKVQWKVDNALQSGNSQESVTEQDSKDSTYSLSSTLTLSKADYEKHKVYACEVTHQGLSSPVTKSFNRGEC
notes: N-terminal VD IGF1,2, C-terminal VD VEGF; also called DVD042H; DVD042L
For B5, in the test with IGF-2, binding was put at a Kd of 0.000998 nM; the koff (in general, the rate constant with which the complex falls apart) worked out at 5.18e-06 s⁻¹; the kon – broadly, the rate constant with which the complex forms – amounted to 5.2e+06 M⁻¹ s⁻¹.

B6: DVD600 (bispecific antibody, human IgG1, kappa)
heavy: EVQLVESGGGLVQPGGSLRLSCAASGFTINASWIHWVRQAPGKGLEWVGAIYPYSGYTNYADSVKGRFTISADTSKNTAYLQMNSLRAEDTAVYYCARWGHSTSPWAMDYWGQGTLVTVSSASTKGPQVQLQQSGAELVKPGASVKISCKASGYTFTDYYINWVKLAPGQGLEWIGWIYPGSGNTKYNEKFKGKATLTIDTSSSTAYMQLSSLTSEDTAVYFCVRDSPFFDYWGQGTLLTVSS[omitted - human IgG1 constant region]
light: DIQMTQSPSSLSASVGDRVTITCRASQVIRRSLAWYQQKPGKAPKLLIYAASNLASGVPSRFSGSGSGTDFTLTISSLQPEDFATYYCQQSNTSPLTFGQGTKVEIKRTVAAPSVFIFPPDIVLTQSPDSLAVSLGERVTMNCKSSQSLLNSGMRKSFLAWYQQKPGQSPKLLIYWASTRESGVPDRFTGSGSGTDFTLTISSVQAEDVAVYYCKQSYHLFTFGSGTKLEIKRTVAAPSVFIFPPSDEQLKSGTASVVCLLNNFYPREAKVQWKVDNALQSGNSQESVTEQDSKDSTYSLSSTLTLSKADYEKHKVYACEVTHQGLSSPVTKSFNRGEC
notes: DVD-Ig, N-terminal VEGF (AB071), C-terminal PlGF (AB047); HC linker short, LC linker long; also called DVD600VH; DVD600VL
In the test with VEGF [1], B6 returned an EC50 of 17 nM.

B7: DVD044 (bispecific antibody, human IgG1, kappa)
heavy: EVQLVESGGGLVQPGGSLRLSCAASGFTFTDNWISWVRQAPGKGLEWVGYISPNSGFTYYADSVKGRFTISADTSKNTAYLQMNSLRAEDTAVYYCARDNFGGYFDYWGQGTLVTVSSASTKGPEVQLVESGGGLVQPGGSLRLSCAASGYTFTNYGMNWVRQAPGKGLEWVGWINTYTGEPTYAADFKRRFTFSLDTSKSTAYLQMNSLRAEDTAVYYCAKYPHYYGSSHWYFDVWGQGTLVTVSS[omitted - human IgG1 constant region]
light: DIQMTQSPSSLSASVGDRVTITCRASQDVSTAVAWYQQKPGKAPKLLIYSASFLYSGVPSRFSGSGSGTDFTLTISSLQPEDFATTYYCQQSYTGTVTFGQGTKVEIKRTVAAPDIQMTQSPSSLSASVGDRVTITCSASQDISNYLNWYQQKPGKAPKVLIYFTSSLHSGVPSRFSGSGSGTDFTLTISSLQPEDFATYYCQQYSTVPWTFGQGTKVEIKRTVAAPSVFIFPPSDEQLKSGTASVVCLLNNFYPREAKVQWKVDNALQSGNSQESVTEQDSKDSTYSLSSTLTLSKADYEKHKVYACEVTHQGLSSPVTKSFNRGEC
Take B7: in test [4], the “Soluble Flt1 Assay, % of Neutralization @ 9.2 nM Ab” value was 39.8%; the “Soluble Flt1 Assay, % of Neutralization @ 27.7 nM Ab” value is 76.2%; the “Soluble Flt1 Assay, % of Neutralization @ 83.3 nM Ab” value is 79.9%.

B8: DVD049 (bispecific antibody, human IgG1, kappa)
heavy: EVQLVESGGGLVQPGGSLRLSCAASGYTFTNYGMNWVRQAPGKGLEWVGWINTYTGEPTYAADFKRRFTFSLDTSKSTAYLQMNSLRAEDTAVYYCAKYPHYYGSSHWYFDVWGQGTLVTVSSASTKGPEVQLVESGGGLVQPGGSLRLSCAASGFSFSSEPISWVRQAPGKGLEWVSSITGKNGYTYYADSVKGRFTISADTSKNTAYLQMNSLRAEDTAVYYCARWGKKVYGMDVWGQGTLVTVSS[omitted - human IgG1 constant region]
light: DIQMTQSPSSLSASVGDRVTITCSASQDISNYLNWYQQKPGKAPKVLIYFTSSLHSGVPSRFSGSGSGTDFTLTISSLQPEDFATYYCQQYSTVPWTFGQGTKVEIKRTVAAPDIQMTQSPSSLSASVGDRVTITCRASQSISSYLAWYQQKPGKAPKLLIYGASSRASGVPSRFSGSGSGTDFTLTISSLQPEDFATYYCQQYMSVPITFGQGTKVEIKRTVAAPSVFIFPPSDEQLKSGTASVVCLLNNFYPREAKVQWKVDNALQSGNSQESVTEQDSKDSTYSLSSTLTLSKADYEKHKVYACEVTHQGLSSPVTKSFNRGEC
B8: in test [5], the “% inhibition of HUVEC proliferation at 0.67 nM” value was 43%, the “% inhibition of HUVEC proliferation at 6.7 nM” value was determined as 86% and the “% inhibition of HUVEC proliferation at 67 nM” value turned out to be 108%.
